From patent US11789019B2 (priority 2014, dated 2023)

Test system: 1807 T cells
Test: Stimulation of 1807 T cells in vitro (BMDC co-culture; IFN-γ ELISA, CD44/CD62L)
Details: for activation of 1807 T cells (reduced CD62L, increased CD44): three days, flow cytometry

| Substance | activation of 1807 T cells (reduced CD62L, increased CD44) | IFN-γ production by 1807 T cells (supernatants after 72 hours, ELISA) |
| --- | --- | --- |
| ovalbumin (OT-II) peptide: irrelevant control peptide (ISQAVHAAHAEINEAGR) [reference compound] | did not activate |  |
| LVVKNPAAHHAIS (Blastomyces dermatitidis of strains 26199, 18808, Er-3, 14081; Histoplasma capsulatum of strains G186AR, Nam1, H88, H143; Aspergillus sp.1 of strain group.1; Arthroderma; listed as Ajellomyces capsulatus, listed as Ajellomyces dermatitidis, listed as Arthroderma benhamiae) [Peptide #1] | activated | concentration-dependent manner |
